According to PubChem BioAssay AID1347120 (National Center for Advancing Translational Sciences (NCATS), 2019):
Among all 390,000 compounds or so, about 930 (0.24%) were called active. The inconclusive results got no clear call from the source; some entries with a clear call stand among them for comparison. Calls follow the shape of the dose curve; as a rule, active = well fitted activation curve with a large enough effect; inconclusive = small, poorly fitted or top-dose-only effect; inactive = no such curve, though single readings can be large or run the other way. Where the call is inconclusive, the potency comes from a doubtful curve fit.

Assay: qHTS for Suppressors of FUS Proteinopathy: Primary screen using FUS-linked yeast assay; also: nearly all actives have a fitted effect of over 55% in size;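 as to growth rescue (activation): plate controls were DMSO vehicle for no effect and reference control for full effect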
Settings: S. cerevisiae FUS-expressing, OD600, 24 h; Potency: growth rescue; growth rescue (activation): at 76.6 µM (top of the series)
Procedure, shortened: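 Galactose (2%) drives FUS expression in yeast precultured in raffinose; seeding density OD 0.005. Test compounds incubated 24hr at 30C and 99% humidity before absorbance at 600 nm was measured.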
Potency is read from the fitted curve at half-maximal effect; tags tell the direction and shape of the fitted curve.

| Compound | Potency | growth rescue (activation) |
| --- | --- | --- |
| CC(C)c1ccc2oc(-c3ccc(NC(=O)c4ncn[nH]4)cc3)nc2c1 | inconclusive: 3.98 µM [activator, full curve] | – |
| Cc1ccc(-n2c(Cc3cccn3C)nnc2SCC(=O)Nc2ccc3c(c2)OCO3)cc1 | inconclusive: 20 µM [activator, partial curve, poor fit] | – |
| CC(C)=CCc1c(-c2ccc(O)cc2O)oc2cc3c(c(O)c2c1=O)C=CC(C)(C)O3 | inconclusive: 35.5 µM [activator, single point] | – |
| C=C(C)c1sc(-c2ccccc2)nc1C | – | inconclusive: -51% [activator] |
| CCOC(=O)C1=C(C)NC(=O)NC1c1cn(-c2ccccc2)nc1-c1ccc(OCC)cc1 (stereo not given) | inconclusive: 50.1 µM [activator, single point] | – |
| Cc1cc(NC(=O)c2cccc(C(=O)Nc3cc(C)on3)n2)no1 | inconclusive: 0.891 µM [activator, full curve, poor fit] | – |
| O=C(CSc1nccn1C1CCCC1)Nc1ccc(C(F)(F)F)cc1 | – | inactive: 11.4% |
| CN(C)c1ccc(CC(=O)N2CCCC(c3cc(C(=O)Nc4ccc(C(C)(C)C)cc4)no3)C2)cc1 (stereo not given) | inconclusive: 28.2 µM [activator, single point] | – |
| COc1cc(-c2nnc(-c3cc(OC)c(OC)c(OC)c3)o2)cc(OC)c1OC | – | inactive: -16.6% |
| COc1ccc([C@@H]2[C@@H]3C(=O)N(C(C)(C)C)C(=O)[C@@H]3[C@]3(C)C(=O)N(c4ccc(C(F)(F)F)cc4)C(=O)N23)cc1 | inconclusive: 15.8 µM [activator, partial curve] | – |
| Cc1ccccc1-n1nc(C(=O)c2cccs2)cc(-c2nc3ccccc3[nH]2)c1=N | – | inconclusive: 140% [activator] |
| CCOc1ccc(C(=O)c2ccc(OCC)c(N)c2)cc1N | inconclusive: 44.7 µM [activator, partial curve, poor fit] | – |
| Cc1ccc(-n2c(=S)sc3c(=O)n(-c4ccccc4C)c(SCC(=O)O)nc32)cc1C | inconclusive: 2.82 µM [activator, full curve] | – |
| C=CCOC(Cn1ccnc1)c1ccc(Cl)cc1Cl (stereo not given) | – | inactive: -7.44% |
| CCOC(=O)c1ccccc1NS(=O)(=O)c1ccccc1F | inconclusive: 50.1 µM [activator, partial curve, poor fit] | – |
| CCN(CC)S(=O)(=O)c1ccc(C(=O)NC(=S)N2CCN(c3ccccc3O)CC2)cc1 | inconclusive: 17.8 µM [activator, single point] | – |
| Cc1ccc2nc(-c3ccc(SCC(=O)Nc4nc(C)cs4)nc3)[nH]c2c1 | – | inactive: 27.5% |
| NC(c1csc(Nc2cc(NCc3ccco3)ncn2)n1)c1ccccc1Cl (stereo not given) | inconclusive: 28.2 µM [activator, single point] | – |
| c1ccc(Cn2ccc3ccc(-c4ccc5ccn(Cc6cccc(Oc7ccccc7)c6)c5c4)cc32)cc1 | inconclusive: 28.2 µM [activator, single point] | – |
| C=CCN(Cc1ccc2c(c1)OCO2)C(C#CCCCC)C(C)C (stereo not given) | – | inactive: -18.3% |

| Compound | Potency | growth rescue (activation) |
| --- | --- | --- |
| COc1cc(OC)c(NC(=O)CC(c2cccs2)N2Cc3ccccc3C2=O)cc1Cl (stereo not given) | inconclusive: 39.8 µM [activator, partial curve, poor fit] | – |
| Cc1cccc(C)c1NC(=O)C(c1ccccc1F)n1c(=O)c(-c2ccco2)nc2ccccc21 (stereo not given) | inconclusive: 10 µM [activator, partial curve] | – |
| COc1cccc(OCc2cc(C(=O)NCc3ccc4c(c3)OCO4)no2)c1 | inconclusive: 15.8 µM [activator, partial curve] | – |
| CCc1ccccc1NC(=O)CSCc1cnn(-c2ccccc2)c1-n1cccc1 | – | inactive: -6.24% |
| CCCCN(C(=O)Cn1ncc(Cl)c(Cl)c1=O)c1c(N)n(CC(C)C)c(=O)[nH]c1=O | inconclusive: 14.1 µM [activator, partial curve, poor fit] | – |
| COc1cccc(C(=O)N2c3nc(-c4ccco4)nn3C3(CCCCC3)[C@@H]3CCCC[C@@H]32)c1 | inconclusive: 50.1 µM [activator, single point] | – |
| CCOC(=O)C1=C(CC)Nc2ccccc2N=C1NC(=O)c1ccc(S(=O)(=O)N2CCOCC2)cc1 | inconclusive: 39.8 µM [activator, single point] | – |
| O=C(C1CC(=O)N(C2CCCC2)C1)N1CCN(c2cccc(C(F)(F)F)c2)CC1 (stereo not given) | inconclusive: 50.1 µM [activator, single point] | – |
| CCOC(=O)C1CCN(S(=O)(=O)c2cc3c4c(c2)CC(=O)N4CCC3)CC1 | inconclusive: 17.8 µM [activator, partial curve, poor fit] | – |
| CN1CCc2c(sc3nc(SCC(=O)N4CCOCC4)n(-c4ccc(Cl)cc4)c(=O)c23)C1 | inconclusive: 22.4 µM [activator, partial curve] | – |
| O=C(NNS(=O)(=O)c1ccc(C(F)(F)F)cc1)c1cnn(-c2ccccc2)c1C(F)(F)F | inconclusive: 44.7 µM [activator, single point] | – |
| CCC1(c2ccccc2)NC(=O)N(CC(=O)Nc2ccc(N3CCCC3)cc2C)C1=O (stereo not given) | inconclusive: 17.8 µM [activator, partial curve, poor fit] | – |
| Cc1ccc(S(=O)(=O)N2CCCCC2)cc1NC(=O)c1cc2ccccc2o1 | inconclusive: 17.8 µM [activator, single point] | – |
| O=C1ON=C(c2ccccc2)/C1=C/c1ccc(O)cc1 | – | inactive: -5.39% |
| O=C(C[C@@H]1C/C=C\C[C@@H](NC(=O)OCC2c3ccccc3-c3ccccc32)C(=O)OCCNC1=O)N[C@@H](CO)Cc1ccccc1 | inconclusive: 17.8 µM [activator, partial curve, poor fit] | – |
| COc1ccccc1NC(=O)CSc1nc(O)cc(=O)n1-c1ccccc1OC | inconclusive: 15.8 µM [activator, partial curve, poor fit] | – |
| C/C(CC(=O)Nc1ccc(N(C)C)cc1)=N\NC(=O)C(=O)NCc1ccccc1 | inconclusive: 28.2 µM [activator, single point] | – |
| Cc1cc2c(cc1C)N(C(=O)CSC1=NCCS1)C(C)(C)c1ssc(=S)c1-2 | inconclusive: 31.6 µM [activator, partial curve] | – |
| O=C1OC[C@H](Cc2ccc3c(c2)OCO3)/C1=C\c1ccc2c(c1)OCO2 | inconclusive: 44.7 µM [activator, single point] | – |
| CC1(Cc2ccc(C(F)(F)F)o2)C(=O)Nc2ccc(-c3cccc(C(F)(F)F)c3)cc21 (stereo not given) | inconclusive: 25.1 µM [activator, partial curve] | – |

| Compound | Potency | growth rescue (activation) |
| --- | --- | --- |
| CCOC1=C2CN(S(=O)(=O)c3ccc(C)cc3)[C@H](c3cccc4ccccc34)C[C@H]2[C@H]2C(=O)N(c3ccccc3)C(=O)[C@H]2C1 | – | inactive: 16.5% |
| CC(C(=O)O)N1C(=O)/C(=C/C=C/c2ccco2)SC1=S (stereo not given) | inconclusive: 22.4 µM [activator, single point] | – |
| C[C@@H]1CN(S(=O)(=O)c2ccc3c(c2)OCCO3)CCN1S(=O)(=O)c1c(F)cccc1F | inconclusive: 25.1 µM [activator, single point] | – |
| O=C(CCC(=O)N1CC2CCCN2c2ccccc21)NCc1cccc(Cl)c1 (stereo not given) | inconclusive: 50.1 µM [activator, single point] | – |
| COC(=O)c1ccc(NC(=O)CN2CCN(c3cccc(Cl)c3)CC2)cc1 | inconclusive: 2.82 µM [activator, full curve] | – |
| CCCn1ccc2c(OCC(=O)Nc3cc(C)ccc3C)cccc2c1=O | inconclusive: 35.5 µM [activator, single point] | – |
| C=CCSc1nnc(N2C(=O)C(O)=C(C(=O)c3ccco3)C2c2ccccc2F)s1 (stereo not given) | inconclusive: 50.1 µM [activator, single point] | – |
| O=C(CC1(O)C(=O)N(CCc2ccccc2)c2ccc(Br)cc21)c1ccc(F)cc1 (stereo not given) | inconclusive: 39.8 µM [activator, single point] | – |
| Cc1ccc(C)c(NC(=O)C2(C)CC3c4ccccc4C2c2ccccc23)c1 (stereo not given) | – | inconclusive: 61.2% [activator] |
| C/C(Cl)=C\Cn1c(O)c(N=NC(N)=S)c2cc(Br)ccc21 | – | inactive: -35% |
| COc1ccc(/C=C(/NC(=O)c2ccccc2)c2nc3ccccc3[nH]2)cc1OC | inconclusive: 31.6 µM [activator, single point] | – |
| O=c1oc2c(O)cccc2cc1-c1nc2ccccc2[nH]1 | inconclusive: 20 µM [activator, partial curve, poor fit] | – |
| O=C(Cc1ccccc1)Nc1sc2c(c1C(=O)Nc1ccccc1)CCCCC2 | inconclusive: 31.6 µM [activator, single point] | – |
| O=C(CSc1ccc(F)cc1)N1CCC(c2nc3ccccc3s2)CC1 | – | inactive: 40.3% |
| Cc1cc(C)c(C)c(S(=O)(=O)N2CCN(c3ccccn3)CC2)c1C | – | inactive: 15% |
| Cc1nc2cc(C(F)(F)F)ccc2n1CCNc1nc(-c2cc(Cl)c(N)c(Cl)c2)cs1 | inconclusive: 31.6 µM [activator, single point] | – |
| Cn1c([N+](=O)[O-])cnc1N1CCN(c2nncs2)C1=O | – | inactive: -35.4% |
| COc1ccc(NC(=O)c2oc3ccccc3c2NC(=O)C2CCCO2)cc1OC (stereo not given) | inconclusive: 50.1 µM [activator, single point] | – |
| C=CC[C@]12CCc3sccc3C1N(c1ccc(C(=O)OCC)cc1)C2=O (stereo not given in full) | inconclusive: 31.6 µM [activator, single point] | – |
| Cc1ccc(-n2ncc(C(=O)NCCc3ccccc3)c2C2CCN(C(=O)OC(C)(C)C)CC2)c(C)c1 | inconclusive: 20 µM [activator, partial curve, poor fit] | – |
